# In all, about 33,000 sequences were measured (“E-score (-0.5 to 0.5)”: median about -0.043, highest 2% from about 0.37 on). Some of the results follow.
# Target: T1, Upc2 (UniProt Q12151)
# T1 sequence: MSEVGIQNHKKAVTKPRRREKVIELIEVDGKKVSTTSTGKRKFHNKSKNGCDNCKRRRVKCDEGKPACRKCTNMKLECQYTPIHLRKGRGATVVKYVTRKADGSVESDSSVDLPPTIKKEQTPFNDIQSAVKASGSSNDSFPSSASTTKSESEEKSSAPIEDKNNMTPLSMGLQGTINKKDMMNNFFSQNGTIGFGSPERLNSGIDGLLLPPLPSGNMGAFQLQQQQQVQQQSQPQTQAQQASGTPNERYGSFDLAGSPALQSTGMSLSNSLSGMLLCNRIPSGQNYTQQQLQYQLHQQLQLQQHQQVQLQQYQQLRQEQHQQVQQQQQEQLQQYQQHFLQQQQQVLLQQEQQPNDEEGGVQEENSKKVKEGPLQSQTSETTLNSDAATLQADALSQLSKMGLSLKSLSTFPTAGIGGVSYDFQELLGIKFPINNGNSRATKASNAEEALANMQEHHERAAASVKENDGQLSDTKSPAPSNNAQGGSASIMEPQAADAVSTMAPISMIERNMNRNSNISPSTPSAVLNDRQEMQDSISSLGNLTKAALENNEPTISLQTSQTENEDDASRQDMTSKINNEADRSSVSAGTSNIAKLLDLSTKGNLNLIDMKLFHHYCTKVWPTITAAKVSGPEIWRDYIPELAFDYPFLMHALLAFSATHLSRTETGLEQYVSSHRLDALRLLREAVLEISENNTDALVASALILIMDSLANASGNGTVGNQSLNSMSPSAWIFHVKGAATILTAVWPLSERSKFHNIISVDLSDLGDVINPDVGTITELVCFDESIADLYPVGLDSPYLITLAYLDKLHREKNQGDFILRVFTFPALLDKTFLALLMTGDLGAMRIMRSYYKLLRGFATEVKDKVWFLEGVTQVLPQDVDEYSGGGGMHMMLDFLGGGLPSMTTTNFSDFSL
# Experiment: PBM E-score (8-mer binding enrichment) (E-score (-0.5 to 0.5)); higher = stronger / more preferred TF binding; most listed sequences are background and not binding sites
# Conditions: protein concentration: 200 nM; construct: GST-full length
# How it was run: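 E-scores (a modified Wilcoxon-Mann-Whitney statistic) were assigned by the Universal PBM Analysis Suite to every ungapped eight-base word pooled with its reverse complement. The input came from universal all-10-mer Agilent arrays made double-stranded by primer extension and probed with GST-tagged yeast transcription factors at about 100-200 nM. Fluorescent anti-GST detected bound protein, and masliner normalised the scans.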
row,Sequence,PBM E-score
1,ATTATGCG,0.316
2,ATAGGATC,-0.123
3,ACTGTGAG,0.0165
4,CTATCACA,-0.106
5,GCTTACCA,0.13
6,CAAACCTA,-0.0994
7,AGCATTCC,0.0981
8,CTTTTTTA,-0.048
9,CAACATAG,-0.192
10,CTCAAATC,-0.0128
11,AACCAAAG,-0.0416
12,CCACGGCC,-0.192
13,CCGGGGTA,-0.0822
14,CCAGGGGG,-0.322
15,AATGTGGG,-0.142
16,ACTGGCCC,-0.0319
17,GCGAACAA,0.139
18,GCGTCTCA,-0.0772
19,ACCGCCCA,-0.0354
20,AAGAGACA,0.134
21,AACAGGGC,-0.115
22,AAAAATCC,-0.152

row,Sequence,PBM E-score
1,GATCCAGC,0.052
2,ATTCTGGC,-0.0354
3,AAAGAAAC,0.0617
4,AGCTATAA,0.0688
5,CGGGGAAG,-0.0185
6,ATGAGCAC,-0.2
7,ACGTGAAG,0.101
8,CCACGTAC,0.227
9,CAGCGAGA,-0.115
10,ACTGATTG,-0.156
11,AACCTATT,0.0505
12,AGGGAACG,0.39
13,CCCTAAGA,-0.156
14,CCAAGACC,-0.279
15,ATCGTTCA,0.443
16,AGATATAA,0.0828
17,CTTTTTCA,-0.0478
18,CTAAAGAC,-0.271
19,GGCCTAAC,0.0516
20,CAACTGCC,-0.104
21,GCTAGGGA,-0.201
22,ATCCACCC,-0.179

row,Sequence,PBM E-score
1,TCAGTGAA,0.00083
2,ACCTGGCG,-0.19
3,CCATGATC,-0.257
4,ATACGAGC,0.489
5,CATACTGG,0.0014
6,GTTCTGTA,0.0485
7,ACTTCAGG,-0.216
8,AGAACATA,0.132
9,AAGGAACG,0.347
10,ATCATACG,0.383
11,AGCCGCCG,-0.247
12,ATACTGAA,0.0552
13,AACACCTG,-0.0435
14,ATCCGGCC,0.0361
15,CTTGACAC,-0.345
16,GCCCTATA,-0.0587
17,TAAAAAGA,-0.124
18,ACGTGCGC,0.12
19,CAACGCCA,-0.169
20,TTCCCAAA,0.0575
21,CATGCTGA,-0.0631
22,AGGCTATG,-0.214

row,Sequence,PBM E-score
1,CGTGATTA,0.0822
2,GAGTTAAC,0.0471
3,CCAGGCGC,-0.181
4,ACGACGAC,0.362
5,GAACATCA,-0.0243
6,GCTCGTCC,-0.249
7,ATGTGTAA,-0.0695
8,CAGTGCGC,-0.241
9,CGTTGACC,0.154
10,GAAGCATC,-0.0855
11,CCAATGGA,-0.0744
12,CAGCTGGC,-0.247
13,CTTAACGC,0.17
14,ACCCCAGG,-0.29
15,CTGGAACC,-0.0119
16,AACCAGCT,-0.0737
17,AGTCAGAT,-0.132
18,TCTCGAGA,-0.0667
19,AGGTCTAT,0.0364
20,AGATCAAT,-0.087
21,GCTTATAA,0.11
22,ACCGCAGA,-0.151

row,Sequence,PBM E-score
1,ACATGTTA,0.119
2,CTAGTATC,-0.0228
3,AACATACT,0.0309
4,TAACACCA,0.0919
5,CATAAGCA,-0.183
6,CTATATGC,-0.124
7,CGACGCTA,0.237
8,AGCCGAGG,0.0685
9,AATTTGAA,0.165
10,GATCTAGC,0.0193
11,CCGATAAG,-0.103
12,CCCGTGCA,-0.116
13,CCTCAGAG,-0.284
14,AGCCTTAG,-0.165
15,AGGTGTGC,-0.195
16,ACATTATG,0.169
17,GATTGAAA,-0.00337
18,AAGGCTGG,-0.303
19,CCCAAAAG,-0.0866
20,CTCACGAC,-0.146
21,AGTGGAGA,-0.159
22,ATAGTGGC,-0.0297
